B1: glmS ribozyme (parent)
chain: AUAAAAGCGCCAGAACUACAGAAAUGUAGUUGACGAGGAGGAGGUUUAUCGAAUUUUCGGCGGAUGCCUCCAAA

± gives the standard error. Variants at the background level are over-represented here.

Variants of B1 are the subject of one series. In words: self-cleavage kobs at 2500 uM GlcN6P; higher = faster cleavage; RNA array. To be noted: with glucosamine-6-phosphate. In a few lines: (§1)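 Weighted Michaelis–Menten fits across concentrations supplied kcat and KM, based on kobs from one- or two-exponential decay fits to normalised per-tile medians. The data came from barcoded ribozyme variants transcribed in situ by E. coli RNA polymerase on sequenced MiSeq chips and tracked at 37 °C by a hybridised Cy3 probe. Glucosamine-6-phosphate (40 μM to 10 mM) in HEPES/KCl/Mg(OAc)2 buffer was flowed in.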
With G41U G62A C70U, the “self-cleavage kobs at 2500 uM GlcN6P” value is less than 1e-05 s⁻¹.
As for G43C G51C G59U, the “self-cleavage kobs at 2500 uM GlcN6P” value was less than 1e-05 s⁻¹.
The same measure, in the same setting: the figure for G43C A64U C68A C71G is less than 1e-05 s⁻¹; for U47A A53G C70A it is 0.000177 ± 4e-05 s⁻¹.
For the variant A64U C68U U69A, the “self-cleavage kobs at 2500 uM GlcN6P” value is less than 1e-05 s⁻¹.
The same measure, in the same setting: the figure for G60C G62A C71G is less than 1e-05 s⁻¹.
The same measure, in the same setting: then U45C G66U C70G, with 7.12e-05 ± 3.1e-05 s⁻¹; and A48G G66U C71G, with less than 1e-05 s⁻¹.
Still for that read-out and setting: then A42C G51A A64U C68G, with less than 1e-05 s⁻¹; and U47A A53U U65A, with 0.00126 ± 0.00036 s⁻¹; and G43A U45A C50U G63C, with less than 1e-05 s⁻¹.
Turning to U46A C50A U56A, the “self-cleavage kobs at 2500 uM GlcN6P” value is less than 1e-05 s⁻¹.
For C68U U69C, the “self-cleavage kobs at 2500 uM GlcN6P” value was 3.88e-05 ± 1.4e-05 s⁻¹.
On the same count and under the same terms, the figure for C50A U56G C70A is 8.66e-05 ± 2.8e-05 s⁻¹; for G44U U57A A64C it is less than 1e-05 s⁻¹.
In the case of G59U G60U U69C, the “self-cleavage kobs at 2500 uM GlcN6P” value is less than 1e-05 s⁻¹.
As to G44C A53U U54G, the “self-cleavage kobs at 2500 uM GlcN6P” value is 7.38e-05 ± 2e-05 s⁻¹.
As to A42U C50A G51A, the “self-cleavage kobs at 2500 uM GlcN6P” value was less than 1e-05 s⁻¹.
Still for that read-out and setting: the figure for A48U G60C C67A is less than 1e-05 s⁻¹; for U46C A48C it is 8.54e-05 ± 2.8e-05 s⁻¹; for U54A G63A C70U it is less than 1e-05 s⁻¹.
Same read-out and setting: then U56G G63C C68U, with less than 1e-05 s⁻¹.
G41C U47G: the “self-cleavage kobs at 2500 uM GlcN6P” value stood at 3.37e-05 ± 1.6e-05 s⁻¹.
The same measure, in the same setting: the figure for G63A C71U is less than 1e-05 s⁻¹; for G41C U55C C67U it is less than 1e-05 s⁻¹; for G51U U57A it is less than 1e-05 s⁻¹.
Still for that read-out and setting: the figure for A42G A52C A53G U54G is less than 1e-05 s⁻¹; for A52C A53U U57A it is less than 1e-05 s⁻¹.
As to A64C C67G C68A, the “self-cleavage kobs at 2500 uM GlcN6P” value is 6.52e-05 ± 1.8e-05 s⁻¹.

Another series covers variants of B1. Briefly: self-cleavage kobs at 10000 uM GlcN6P; higher = faster cleavage; RNA array. Particulars: with glucosamine-6-phosphate. In a few lines: as §1
In the case of G41U G62A C70U, the “self-cleavage kobs at 10000 uM GlcN6P” value was less than 1e-05 s⁻¹.
The same measure, in the same setting: then C8U G13A U57G, with less than 1e-05 s⁻¹; and C10U A15C G32C A33U C61A G63C U65C, with less than 1e-05 s⁻¹; and G7U A12G G35A A39G U49A C67A, with less than 1e-05 s⁻¹.
On the same count and under the same terms, the figure for A12U G32C G38C is less than 1e-05 s⁻¹.
For C10A G38A U45G, the “self-cleavage kobs at 10000 uM GlcN6P” value is less than 1e-05 s⁻¹.
Consider C8U C50U G59U, for which the “self-cleavage kobs at 10000 uM GlcN6P” value was less than 1e-05 s⁻¹.
Consider C8U C34A A53C C71A, for which the “self-cleavage kobs at 10000 uM GlcN6P” value is less than 1e-05 s⁻¹.
Same read-out and setting: the figure for A6U A15C G43C is less than 1e-05 s⁻¹.
Still for that read-out and setting: then C8G A14C C67G, with less than 1e-05 s⁻¹; and A6C C50U G62U, with less than 1e-05 s⁻¹.
In the case of G9A G44U U57C, the “self-cleavage kobs at 10000 uM GlcN6P” value is less than 1e-05 s⁻¹.
Still for that read-out and setting: the figure for C10U A33G G35C U45G C68U is less than 1e-05 s⁻¹; for C68U U69C it is 6.79e-05 ± 1.1e-05 s⁻¹.
Regarding A12G G51C G60U, the “self-cleavage kobs at 10000 uM GlcN6P” value was less than 1e-05 s⁻¹.
Consider G7A C8U A12G G13U U45C A64C, for which the “self-cleavage kobs at 10000 uM GlcN6P” value was less than 1e-05 s⁻¹.
Same read-out and setting: the figure for A6C G43U C61G is less than 1e-05 s⁻¹.
On the same count and under the same terms, then A12G U49A C58G G66A, with less than 1e-05 s⁻¹; and G7U A14U A36C G38U U45C, with less than 1e-05 s⁻¹.
On the same count and under the same terms, then G9U A52C U69A, with less than 1e-05 s⁻¹; and A6G G29A G60C G63C, with less than 1e-05 s⁻¹; and A6U A39G A52G C58G G59U G60U, with less than 1e-05 s⁻¹.
Take A6U G44U U56A: the “self-cleavage kobs at 10000 uM GlcN6P” value is less than 1e-05 s⁻¹.
On the same count and under the same terms, then A6C U31A U46C, with less than 1e-05 s⁻¹; and C11A G13U A53G C67U C68G, with 3.78e-05 ± 1.7e-05 s⁻¹; and U46C A48C, with 0.000136 ± 2.8e-05 s⁻¹.
Still for that read-out and setting: then A6U A12U A64G, with 0.000171 ± 4.1e-05 s⁻¹; and G7A C34U A42C, with less than 1e-05 s⁻¹.
In the case of G41C U47G, the “self-cleavage kobs at 10000 uM GlcN6P” value is 0.000117 ± 2.8e-05 s⁻¹.
The same measure, in the same setting: then G9A G29U G37C, with less than 1e-05 s⁻¹; and C8U G13A U31G A42C U45G C67G, with less than 1e-05 s⁻¹; and G63A C71U, with less than 1e-05 s⁻¹.
Turning to G7U G29U G41A C71A, the “self-cleavage kobs at 10000 uM GlcN6P” value was less than 1e-05 s⁻¹.
On the same count and under the same terms, then C11G A53C C70A, with less than 1e-05 s⁻¹; and A12G G35C A42C C58U G59A G62U C70G, with less than 1e-05 s⁻¹.
For A6G G29U U49G U54A, the “self-cleavage kobs at 10000 uM GlcN6P” value was less than 1e-05 s⁻¹.
Turning to C10A C11U G35U A53U, the “self-cleavage kobs at 10000 uM GlcN6P” value was less than 1e-05 s⁻¹.
Still for that read-out and setting: the figure for C8G A14G A33U is less than 1e-05 s⁻¹; for C8U C34A G51U U55G it is less than 1e-05 s⁻¹; for C8A C16G U65C it is less than 1e-05 s⁻¹.
For C8A G44U C71A, the “self-cleavage kobs at 10000 uM GlcN6P” value is less than 1e-05 s⁻¹.
Still for that read-out and setting: the figure for C11U A15U G60U is less than 1e-05 s⁻¹.
Still for that read-out and setting: the figure for G51U U57A is less than 1e-05 s⁻¹; for G9U C10G U45A it is less than 1e-05 s⁻¹.
Still for that read-out and setting: the figure for A6U G7A G29C is less than 1e-05 s⁻¹; for A12U G40A G51C it is less than 1e-05 s⁻¹.
Take G7C G9A G37C U55G C68G: the “self-cleavage kobs at 10000 uM GlcN6P” value was less than 1e-05 s⁻¹.
Consider C11G G43A G63U, for which the “self-cleavage kobs at 10000 uM GlcN6P” value is less than 1e-05 s⁻¹.
A6C G43U G59U: the “self-cleavage kobs at 10000 uM GlcN6P” value was less than 1e-05 s⁻¹.
The same measure, in the same setting: then C10G G63A C67U, with less than 1e-05 s⁻¹; and A12C U31G A48U C58G, with less than 1e-05 s⁻¹; and G9C G44U A64U, with less than 1e-05 s⁻¹.
Still for that read-out and setting: the figure for G13C C61U G62U C71U is less than 1e-05 s⁻¹; for A6U C11G A15U G35U A39C C67U it is less than 1e-05 s⁻¹.
Consider G13A A15U A53G G60U, for which the “self-cleavage kobs at 10000 uM GlcN6P” value was less than 1e-05 s⁻¹.
The same measure, in the same setting: the figure for C11G A12G G32C U57C is less than 1e-05 s⁻¹; for C11G G43A U57G it is less than 1e-05 s⁻¹.

Source of the values: the supplement of paper PMC7125110.
